Positions count from the first letter of the chain named.
B1: CD98 (CL-huAb102)-CZ (conjugate)
heavy: EVQLVESGGGLVQPGGSLRLSCATSGFTFIDYYMSWVRQAPGKGLEWLGFIRNKANRYTTEYSASVKGRFTISRDNSKSILYLQMNSLKTEDTAVYYCTRDRPAWFVYWGQGTLVTVSSASTKGPSVFPLAPSSKSTSGGTAALGCLVKDYFPEPVTVSWNSGALTSGVHTFPAVLQSSGLYSLSSVVTVPSSSLGTQTYICNVNHKPSNTKVDKKV[skipping human IgG1 Fc with changes]
light: DIVMTQTPLSLPVTPGEPASISCKSSQSLLYSSNQKNYLAWYLQKPGQSPQLLIYWASTRESGVPDRFSGSGSGTDFTLKISRVEAEDVGVYYCQQYYSYPYTFGGGTKVEIKRTVAAPSVFIFPPSDEQLKSGTASVVCLLNNFYPREAKVQWKVDNALQSGNSQESVTEQDSKDSTYSLSSTLTLSKADYEKHKVYACEVTHQGLSSPVTKSFNRGEC
B2: CD98 (CL-huAb102)-TX (conjugate)
heavy: EVQLVESGGGLVQPGGSLRLSCATSGFTFIDYYMSWVRQAPGKGLEWLGFIRNKANRYTTEYSASVKGRFTISRDNSKSILYLQMNSLKTEDTAVYYCTRDRPAWFVYWGQGTLVTVSSASTKGPSVFPLAPSSKSTSGGTAALGCLVKDYFPEPVTVSWNSGALTSGVHTFPAVLQSSGLYSLSSVVTVPSSSLGTQTYICNVNHKPSNTKVDKKV[skipping human IgG1 Fc with changes]
light: B1 light
B3: CD98 (CL-huAb104)-CZ (conjugate)
heavy: EVQLVESGGGLVQPGGSLRLSCATSGFTFIDYYMSWVRQAPGKGLEWLGFIRNKAYGYTTEYSASVKGRFTISRDNSKSILYLQMNSLKTEDTAVYYCTRDRPAWFVYWGQGTLVTVSSASTKGPSVFPLAPSSKSTSGGTAALGCLVKDYFPEPVTVSWNSGALTSGVHTFPAVLQSSGLYSLSSVVTVPSSSLGTQTYICNVNHKPSNTKVDKKV[skipping human IgG1 Fc with changes]
light: B1 light
B4: CD98 (CL-huAb108)-TX (conjugate)
heavy: EVQLVQSGAEVKKPGASVKVSCKASGFTFSDYTMAWVRQAPGQGLEWVATIIYSGRGTYYRDAVKGRFTITRDNSTSTLYLELSSLRSEDTAVYYCARQSDDTYYYWGYFDYWGQGTMVTVSSASTKGPSVFPLAPSSKSTSGGTAALGCLVKDYFPEPVTVSWNSGALTSGVHTFPAVLQSSGLYSLSSVVTVPSSSLGTQTYICNVNHKPSNTKVDKKV[skipping human IgG1 Fc with changes]
light: B1 light with S22N, Y31F, S33G, E61Q, V91I, S99D, Y100V, G106Q, V110L
B5: CD98 (CL-huAb108)-CZ (conjugate)
heavy: EVQLVQSGAEVKKPGASVKVSCKASGFTFSDYTMAWVRQAPGQGLEWVATIIYSGRGTYYRDAVKGRFTITRDNSTSTLYLELSSLRSEDTAVYYCARQSDDTYYYWGYFDYWGQGTMVTVSSASTKGPSVFPLAPSSKSTSGGTAALGCLVKDYFPEPVTVSWNSGALTSGVHTFPAVLQSSGLYSLSSVVTVPSSSLGTQTYICNVNHKPSNTKVDKKV[skipping human IgG1 Fc with changes]
light: B1 light with S22N, Y31F, S33G, E61Q, V91I, S99D, Y100V, G106Q, V110L
B6: CD98 (CL-huAb108)-AAA (conjugate)
heavy: EVQLVQSGAEVKKPGASVKVSCKASGFTFSDYTMAWVRQAPGQGLEWVATIIYSGRGTYYRDAVKGRFTITRDNSTSTLYLELSSLRSEDTAVYYCARQSDDTYYYWGYFDYWGQGTMVTVSSASTKGPSVFPLAPSSKSTSGGTAALGCLVKDYFPEPVTVSWNSGALTSGVHTFPAVLQSSGLYSLSSVVTVPSSSLGTQTYICNVNHKPSNTKVDKKV[skipping human IgG1 Fc with changes]
light: B1 light with S22N, Y31F, S33G, E61Q, V91I, S99D, Y100V, G106Q, V110L
B7: CD98 (CL-huAb104)-AAA (conjugate)
heavy: EVQLVESGGGLVQPGGSLRLSCATSGFTFIDYYMSWVRQAPGKGLEWLGFIRNKAYGYTTEYSASVKGRFTISRDNSKSILYLQMNSLKTEDTAVYYCTRDRPAWFVYWGQGTLVTVSSASTKGPSVFPLAPSSKSTSGGTAALGCLVKDYFPEPVTVSWNSGALTSGVHTFPAVLQSSGLYSLSSVVTVPSSSLGTQTYICNVNHKPSNTKVDKKV[skipping human IgG1 Fc with changes]
light: B1 light
B8: CD98 (CL-huAb110)-CZ (conjugate)
heavy: EVQLVQSGAEVKKPGASVKVSCKASGFTFSDYTMAWVRQAPGQGLEWVATIIYDARGTYYRDAVKGRFTITRDNSTSTLYLELSSLRSEDTAVYYCARQSDDTYYYWGYFDYWGQGTMVTVSSASTKGPSVFPLAPSSKSTSGGTAALGCLVKDYFPEPVTVSWNSGALTSGVHTFPAVLQSSGLYSLSSVVTVPSSSLGTQTYICNVNHKPSNTKVDKKV[skipping human IgG1 Fc with changes]
light: B1 light with S22N, Y31F, S33G, E61Q, V91I, Y100S, G106Q, V110L

Columns and labels:
[1] = tested on: NCI-H146 (human small cell lung cancer) xenograft; assay: NCI-H146 xenograft tumor growth inhibition in SCID-bg mice; format: in vivo, mouse; conditions: single dose 10 mg/kg/day, QD × 1/IP
[2] = tested on: Molt-4 human acute lymphoblastic leukemia cell line; assay: Growth inhibition assay, ATPlite 1 step, 72 hours; format: cell-based; conditions: Molt-4 cells
Procedure: The activities of these ADCs were tested in growth inhibition assays in the Molt-4 human acute lymphoblastic leukemia cell line. Briefly, 5000 Molt-4 cells per well in 96-well plates were treated with ADCs in serial dilution for 72 hours. The number of viable cells was determined by the ATPlite 1 step reagent (PerkinElmer 6016739) as instructed by the manufacturer. Data was analyzed using Graphpad Prism software and IC50 values were reported as the concentration of ADC to achieve 50% inhibition of cell proliferation (Table 27).

[3] = tested on: NCI-H460 human lung carcinoma xenograft; assay: NCI-H460 xenograft tumor growth inhibition in SCID-bg mice, with or without docetaxel; format: in vivo, mouse; conditions: QD × 1, Ab095 8 mg/kg IP, docetaxel 7.5 mg/kg IV, ADC 10 mg/kg IP, combination 7.5 + 10
Procedure: (§1) The cell lines A549 and NCI-H460 were obtained from the American Type Culture Collection (ATCC, Manassas, Va.). A549 cell line was further passaged in mice as flank xenograft to improve xenograft tumor growth, resulting in the A549-FP3 line. Cells were cultured as monolayers in RPMI-1640 culture media (Invitrogen, Carlsbad, Calif.) supplemented with 10% Fetal Bovine Serum (FBS, Hyclone, Logan, Utah). To generate xenografts, 5×10^6 (A549 and NCI-H460) viable cells were inoculated subcutaneously into the right flank of immune deficient female SCID-bg mice (Charles River Laboratories, Wilmington, Mass.). The injection volume was 0.2 ml and composed of 1:1 S-MEM:Matrigel Matrigel (BD, Franklin Lakes, N.J.). Tumors were size matched at approximately 223 mm^3. Antibodies, conjugates, and docetaxel were formulated in 0.9% sodium chloride for injection. […] Therapy began within 24 hours after size matching of the tumors. Mice weighed approximately 21 g at the onset of therapy. Tumor volume was estimated two to three times weekly. Measurements of the length (L) and width (W) of the tumor were taken via electronic caliper and the volume was calculated according to the following equation: V=L×W^2/2. […] Eight mice were housed per cage. […] Tumor growth inhibition is calculated by 100*(1−Tv/Cv) where Tv and Cv are the mean tumor volumes of the treated and control groups, respectively.

[4] = tested on: A549-FP3 human lung carcinoma xenograft; assay: A549 FP3 xenograft tumor growth inhibition in SCID-bg mice, with or without docetaxel; format: in vivo, mouse; conditions: QD × 1, Ab095 8 mg/kg IP, docetaxel 7.5 mg/kg IV, ADC 10 mg/kg IP, combination 7.5 + 10
Procedure: as §1

Row | Molecule | TGImax (%) [1] | other results
1 | B1 | 93% | % Cell Viability at 50 nM ([2]; 50 nM ADC): 1.0%; IC50 ([2]; ATPlite 1 step, read-out: Molt4 IC50): 15 pM
2 | B2 | 92% | 
3 | B3 | 90% | 
4 | B4 |  | TGD (%) [3]: 22%; TGImax (%) [3]: 35%; TGD (%) [4]: 60%; TGImax (%) [4]: 57%
5 | B5 | 93% | 
6 | B6 | 61% | 
7 | B7 | 61% | 
8 | B8 | 92% | 

Source: patent US20200002432A1, “ANTI-CD98 ANTIBODIES AND ANTIBODY DRUG CONJUGATES” (AbbVie Inc., priority 2016, published 2020)
